# About 14,000 (4.5%) of roughly 310,000 compounds showed an effect of 50% or more. Effects have a minus sign here. Some of the results follow.
# Biological target: human ether-à-go-go-related gene (hERG) potassium channel (human, UniProt Q12809)
# Assay: primary screen, population patch clamp on CHO cells stably expressing hERG
# 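Further: peak tail current of the secondary pulse compared with the same well before compound.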
# Sequence of human ether-à-go-go-related gene (hERG) potassium channel (Q12809 whole entry, looked up): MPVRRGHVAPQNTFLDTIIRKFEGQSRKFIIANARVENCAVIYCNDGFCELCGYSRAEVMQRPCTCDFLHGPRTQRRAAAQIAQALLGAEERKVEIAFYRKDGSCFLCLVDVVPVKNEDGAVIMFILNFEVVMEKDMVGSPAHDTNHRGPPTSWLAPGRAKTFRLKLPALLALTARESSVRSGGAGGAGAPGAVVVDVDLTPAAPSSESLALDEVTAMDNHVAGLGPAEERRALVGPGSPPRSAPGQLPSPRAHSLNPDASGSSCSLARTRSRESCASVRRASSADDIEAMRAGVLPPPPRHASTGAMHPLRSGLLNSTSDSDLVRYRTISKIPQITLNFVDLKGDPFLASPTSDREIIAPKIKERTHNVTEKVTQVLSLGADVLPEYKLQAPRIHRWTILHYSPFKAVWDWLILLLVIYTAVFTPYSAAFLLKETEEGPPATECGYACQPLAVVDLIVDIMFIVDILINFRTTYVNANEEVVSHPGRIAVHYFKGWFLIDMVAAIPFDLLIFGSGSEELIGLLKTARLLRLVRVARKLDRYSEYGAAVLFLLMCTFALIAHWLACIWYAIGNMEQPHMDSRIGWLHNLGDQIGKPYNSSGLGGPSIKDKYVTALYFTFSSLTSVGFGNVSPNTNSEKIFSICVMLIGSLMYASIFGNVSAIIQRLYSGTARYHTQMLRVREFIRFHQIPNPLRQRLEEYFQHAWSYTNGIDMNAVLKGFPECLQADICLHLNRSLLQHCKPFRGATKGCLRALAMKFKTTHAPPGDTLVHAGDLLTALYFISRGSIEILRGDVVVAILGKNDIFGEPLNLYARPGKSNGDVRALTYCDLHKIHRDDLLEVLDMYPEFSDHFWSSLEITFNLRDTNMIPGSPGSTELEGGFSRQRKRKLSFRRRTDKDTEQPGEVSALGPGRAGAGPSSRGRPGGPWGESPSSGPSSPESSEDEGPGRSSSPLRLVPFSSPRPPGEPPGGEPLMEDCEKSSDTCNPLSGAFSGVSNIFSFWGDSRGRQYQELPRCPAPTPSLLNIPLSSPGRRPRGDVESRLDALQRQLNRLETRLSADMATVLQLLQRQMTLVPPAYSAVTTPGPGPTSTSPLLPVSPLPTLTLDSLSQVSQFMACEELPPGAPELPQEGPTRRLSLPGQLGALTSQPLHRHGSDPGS
row,SMILES,"hERG current change (%, negative = inhibition) at 10uM [%]"
1,Cn1nc(C(F)(F)F)cc1C(=O)O,22.5
2,CCc1ccc(NC(=O)C(C)OC(=O)c2ccc(NS(=O)(=O)c3ccc(C)c([N+](=O)[O-])c3)cc2)cc1 (centres unmarked),4.28
3,COc1ccc2[nH]cc(S(=O)(=O)c3ccc(C(C)C)cc3)c(=O)c2c1,9.12
4,CC/C=C/C(=O)N1CC2(CC(c3cccc(NC(=O)CC(c4ccccc4)c4ccccc4)c3)=NO2)C[C@@H]1C(N)=O (some centres unmarked),14.6
5,O=C(OCCN1C(=O)c2cccc3c(N4CCOCC4)ccc(c23)C1=O)c1ccc(Cl)cc1Cl,5.21
6,CCCn1c(NCc2cc(OC)ccc2OC)nc2ccccc21,-51.3
7,Cl.Nc1ccc(N)c(C(=O)O)c1,9.65
8,O=C(NCC1CC1)Nc1ccccc1F,18.8
9,COc1ccc(S(=O)(=O)N2CCCc3ccccc32)cc1[N+](=O)[O-],-4.01
10,O=[N+]([O-])c1cccc(N=Cc2sc3ccccc3c2O)c1,35.2
11,CCn1cc(CN2CCCC(CNS(=O)(=O)Cc3ccccc3)C2)cn1 (centres unmarked),16.1
12,CCc1ccccc1S(=O)(=O)Cc1ccc(C(=O)NCc2cccs2)o1,-22.5
13,O=C(O)c1ccc(-c2noc(-c3cccc(F)c3)n2)cc1,-6.44
14,CN(c1cccc(NC(=O)CN(c2cccc(F)c2)S(C)(=O)=O)c1)S(C)(=O)=O,3.24
15,COC(=O)Cn1c(=NC(=O)c2nc3ccccc3s2)sc2cc(S(N)(=O)=O)ccc21,6.74
16,Cc1nnc(SCC(=O)Nc2cccc(C(F)(F)F)c2)[nH]c1=O,8.84
17,CCOc1ccccc1NC1=CC(=O)CC(c2ccccc2)C1 (centres unmarked),-16.9
18,O=S1(=O)CC2SC(=S)N(c3ccccc3)C2C1 (centres unmarked),7.98
19,CC(C)(C)NC[C@H](O)COc1cccc2c1CCCC2=O.Cl,6.43
20,COc1ccc(/C=C/c2nc(N)nc(-c3ccccc3O)n2)cc1OC,10.2
21,Cc1nc2ccccc2n1CC(O)COc1ccc(Br)cc1 (centres unmarked),-49.9
22,CCO.CCOC(=O)c1c(-c2ccccc2)oc2ccc(OC(C)C(=O)O)cc12 (centres unmarked),-15
23,FC(F)(F)c1nnc2sc(-c3ccncc3)nn12,0.462

row,SMILES,"hERG current change (%, negative = inhibition) at 10uM [%]"
1,CCN(CC)c1ccc(-n2c(C)cc(C=O)c2C)cc1,6.33
2,Cc1cc(OCC(=O)Nc2ccccc2C)no1,14
3,CC(C)NC(=O)CSc1nc(N)c(-c2ccccc2)c(=O)[nH]1,9.83
4,CCc1c(C(=O)Nc2ccc(S(=O)(=O)N3CCOCC3)cc2)csc1C,-22.3
5,O=C(Nc1nccs1)c1ccc(Cl)c([N+](=O)[O-])c1,10.6
6,CCN(c1ccccc1)S(=O)(=O)c1ccc(C(=O)Nc2nccs2)cc1,8.62
7,COc1ccc(-n2c(=S)[nH]c3cc(C(=O)Nc4cccc(C)c4)ccc3c2=O)cc1,6.17
8,O=C(NN1CCOCC1)c1cc(S(=O)(=O)Nc2cccc(C(F)(F)F)c2)ccc1Cl,2.96
9,O=C(Cn1ncc(N2CCOCC2)c(Br)c1=O)c1ccc(Cl)cc1,-35
10,O=C1C=C(N2CCN(C3=CC(=O)CCC3)CC2)CCC1,8.21
11,CC(C)(C)c1ccc(C(=O)Nc2c3c(nn2C(C)(C)C)CS(=O)(=O)C3)cc1,10.7
12,C=CCNC(=S)NNC(=O)c1cccn(Cc2ccc(Cl)c(Cl)c2)c1=O,2.91
13,CC1CCN(c2ncnc3c2cnn3-c2ccccc2)CC1,21.2
14,O=C(O)c1ccccc1NS(=O)(=O)c1ccc2c(c1)OCCO2,29.2
15,CC(=O)Nc1ccc(NC(=O)c2c([N+](=O)[O-])cnn2C)cc1,17.9
16,CCCNC(=S)N1CCC(NC(=O)C2CCCCC2)CC1,8.48
17,CN(C)c1ccc(C(CNC(=O)c2ccc(-c3ccccc3)cc2)N2CCOCC2)cc1 (centres unmarked),8.17
18,Cc1ccc(S(=O)(=O)N2CCOCC2)cc1NC(=O)CSc1nnc(N)s1,31.7
19,Cn1c(-c2cccc(F)c2)nc2c1c(=O)[nH]c(=O)n2Cc1ccccc1,19.1
20,Cc1cccc2[nH]c3c(N4CCN(C(=O)c5ccco5)CC4)ncnc3c12,-27
21,O=C(NCc1ccncc1)c1cccc(S(=O)(=O)NCc2ccccc2)c1,-12.7
22,COc1ccc(OC)c(CNC(=O)CCS(=O)(=O)c2ccc3c(c2)oc(=O)n3C)c1,5.32
23,COc1ccc(OC)c(/C=N/NC(=O)CC2C(=O)NN=C2C)c1 (centres unmarked),7.05

row,SMILES,"hERG current change (%, negative = inhibition) at 10uM [%]"
1,Cc1cnc(CN(C)C(=O)c2cc(COc3c(F)cccc3F)on2)[nH]1,-9.29
2,CNC(=S)N1N=C(c2ccc(Br)cc2)CC1c1ccc(N(C)C)cc1 (centres unmarked),1.96
3,COc1ccc(OC(=O)c2cc(S(=O)(=O)N3CCCC3)ccc2Cl)cc1,3.96
4,CCNc1nc(NC(C)CC)nc(ON=C(C)C)n1 (centres unmarked),-2.23
5,O=c1c(Cc2ccc(Cl)cc2)c(O)ccn1Cc1ccncc1,0.535
6,Cc1ccc(NC(=O)CN2CCc3ccccc3C2)cc1C,-5.18
7,O=C(NCCC1=CCCCC1)C1CCCN(S(=O)(=O)c2ccc(F)cc2)C1 (centres unmarked),19.6
8,O=C(NC1CC1)c1cc2cc(Br)ccc2s1,20.9
9,CCN=C1SC(CC(=O)Nc2sc3c(c2C#N)CCCC3)C(=O)N1CC (centres unmarked),-6.84
10,COc1cc(C(=O)OCc2ccccc2C#N)ccc1OCC(=O)N1CCOCC1,-25.7
11,O=C(Nc1ccc(SC(F)F)cc1)C1=COCCO1,-30
12,CC(=O)C1=C(c2ccccc2)NC(=S)NC1c1ccc(O)c(O)c1 (centres unmarked),13.8
13,Cc1nn(Cc2ccc([N+](=O)[O-])cc2)c(=O)n1-c1ccc(F)cc1,-13.9
14,O=C(NCc1nc2ccccc2[nH]1)C1=C[C@H](C2CCCCC2)C[C@H](OCc2ccc(CO)cc2)O1,5.99
15,O=C(CN(CCc1ccccc1)S(=O)(=O)c1ccc(Br)cc1)N/N=C/c1ccccc1C(=O)O,3.46
16,O=c1[nH]c(C2CCN(S(=O)(=O)c3ccccc3F)CC2)nc2c1nnn2Cc1ccc2c(c1)OCCO2,3.32
17,CCN(CC(=O)Nc1c(F)cccc1F)C(=O)c1cc([N+](=O)[O-])ccc1N1CCOCC1,-4.57
18,CCOCC(=O)Nc1cccc(NC(C)=O)c1,8.49
19,CCOC(=O)C1(Cc2ccc(OC)cc2)CCN(C(=O)c2csc(C)n2)CC1,2.99
20,CC(NC(=O)Cc1ccccc1)c1nc2ccccc2[nH]1 (centres unmarked),5.94
21,COc1ccc(C(=O)NC(=S)NNC(=O)c2ccc(C)cc2)cc1,12
22,CCn1c(OC)nc2c1c(=O)n(C)c(=O)n2C,12.4
23,Cc1ccc(-c2csc(/C=C3\SC(C)C(=O)N3CC(=O)Nc3ccccc3F)n2)cc1 (centres unmarked),2.01

row,SMILES,"hERG current change (%, negative = inhibition) at 10uM [%]"
1,CC(=O)Oc1ccc(NC(=O)CCC2CCCCC2)c(C(=O)O)c1,-1.66
2,O=C(NCCS(=O)(=O)NCc1ccccc1)c1ccc2c(c1)OCO2,-21.2
3,Cc1ccc(Nc2nc(COC(=O)COc3ccc(C=O)cc3)cs2)cc1,-5.84
4,O=C(Nc1ccc2[nH]ncc2c1)c1cccc(F)c1,17.8
5,COc1ccc2c(c1)C(=O)CC(O)(C(F)F)O2 (centres unmarked),-3.77
6,Cn1nnc(NC(=S)NC(=O)/C=C/c2ccco2)n1,21.9
7,Cc1cccc(NC(=S)N2CCCCCC2)c1C,22
8,O=C1CSc2ccccc2N1Cc1ccc(F)cc1,-38.4
9,OC(c1cccnc1)c1cccs1 (centres unmarked),9.41
10,COc1cccc(CN2CCN(Cc3cccc(F)c3)CC2)c1.O=C(O)C(=O)O,-6.47
11,CCCCc1ccc(NC(=S)N2CCN(c3ccccn3)CC2)cc1,-2.02
12,CC(C)c1nc(CN(C)C(=O)N[C@H](C(=O)N[C@@H](Cc2ccccc2)C[C@H](O)[C@H](Cc2ccccc2)NC(=O)OCc2cncs2)C(C)C)cs1,-24.5
13,COc1cc(N)n(S(=O)(=O)c2ccc(C)cc2)n1,15.4
14,CCN(CC)C(=O)c1cnn(-c2ccccc2)c1NC(=O)c1cccs1,5.94
15,CC(=O)NCCc1nc2ccccc2n1Cc1ccc(Cl)cc1,-26.6
16,O=C(O)C1C(=O)NCC1c1ccccc1 (centres unmarked),10.6
17,COC(=O)c1sc(NC(=O)c2ccco2)nc1C,19.1
18,CCN1CCc2nc(SCC(=O)Nc3ccc(OC)cc3)c(C#N)cc2C1,-44.7
19,Cc1cccc(C2c3[nH]c4ccccc4c3CCN2C(=O)c2cc(CC(C)C)nc(C)n2)n1 (centres unmarked),30.6
20,O=C(NCCc1ccc(Cl)cc1)c1ccc2nccnc2c1,-17.2

# Source: article PMC4336329 (PLoS ONE, 2015)
